Measured values taken from the supplement of paper PMC4604168 (melanoma cell lines).
Some of the results follow. Most values come without repeats; read them as rough.

Experiments:
Assay in all cases: cell count relative to DMSO control; melanoma cells; higher = more viable cells
Conditions in all cases: library dose: standard library concentration; 72 h
G361 = test system: G361
IPC-298 = test system: IPC-298
IST-MEL1 = test system: IST-MEL1
LB2518-MEL = test system: LB2518-MEL
LOXIMVI = test system: LOXIMVI
MEL-HO = test system: MEL-HO
MZ2-MEL = test system: MZ2-MEL
MeWo = test system: MeWo
RPMI7951 = test system: RPMI7951
RVH-421 = test system: RVH-421
SkMel28 = test system: SkMel28
SkMel2 = test system: SkMel2
SkMel30 = test system: SkMel30
SkMel5 = test system: SkMel5
UACC257 = test system: UACC257
UACC62 = test system: UACC62
WM115 = test system: WM115
WM1716 = test system: WM1716
WM1745 = test system: WM1745
WM3526 = test system: WM3526
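Also: cells treated in 1,536-well plates, then fixed and DAPI-stained, with nuclei counted from automated high-throughput microscope images.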

Structure (SMILES)	cell count (G361)	cell count (IPC-298)	cell count (IST-MEL1)	cell count (LB2518-MEL)	cell count (LOXIMVI)	cell count (MEL-HO)	cell count (MZ2-MEL)	cell count (MeWo)	cell count (RPMI7951)	cell count (RVH-421)	cell count (SkMel28)	cell count (SkMel2)	cell count (SkMel30)	cell count (SkMel5)	cell count (UACC257)	cell count (UACC62)	cell count (WM115)	cell count (WM1716)	cell count (WM1745)	cell count (WM3526)
CC[C@]1(O)C[C@H]2CN(CCc3c([nH]c4ccccc34)[C@@](C(=O)OC)(c3cc4c(cc3OC)N(C=O)[C@H]3[C@@](O)(C(=O)OC)[C@H](OC(C)=O)[C@]5(CC)C=CCN6CC[C@]43[C@@H]65)C2)C1 [vincristine] + Cc1nc(Nc2ncc(C(=O)Nc3c(C)cccc3Cl)s2)cc(N2CCN(CCO)CC2)n1 [dasatanib] (first compound 0.0005 µM, partner dose 0.02 µM)	82.1%	94.1%	58.1%	73.6%	23.5%	68.2%	59.6%	68.7%	31.9%	63.9%	53.6%	69.8%	66.6%	56%	75.5%	53.2%	40.2%	41.4%	38.8%	54.4%
Cc1cc(Nc2cc(N3CCN(C)CC3)nc(Sc3ccc(NC(=O)C4CC4)cc3)n2)n[nH]1 [Tozasertib] + Cn1nnc2c(C(N)=O)ncn2c1=O [temozolomide] (first compound 0.03 µM, partner dose 10 µM)	84.5%	78.4%	65.6%	81.1%	84%	86.3%	69%	70.7%	89.4%	84.9%	46.9%	91.4%	73.1%	53.5%	91.2%	66.3%	56.2%	62.5%	49.2%	86.3%
Cc1cc(Nc2cc(N3CCN(C)CC3)nc(Sc3ccc(NC(=O)C4CC4)cc3)n2)n[nH]1 [Tozasertib] + O=C(CCCCCCC(=O)Nc1ccccc1)NO [vorinostat] (first compound 0.03 µM, partner dose 0.4 µM)	62.2%	76.2%	74.2%	57.9%	68.5%	72.4%	67.6%	72.8%	56%	91.6%	22.8%	51.9%	73.3%	60.1%	70.5%	75.3%	42.9%	66.9%	55.6%	74.1%
CC[C@]1(O)C[C@H]2CN(CCc3c([nH]c4ccccc34)[C@@](C(=O)OC)(c3cc4c(cc3OC)N(C=O)[C@H]3[C@@](O)(C(=O)OC)[C@H](OC(C)=O)[C@]5(CC)C=CCN6CC[C@]43[C@@H]65)C2)C1 [vincristine] + Cc1cc(Nc2cc(N3CCN(C)CC3)nc(/C=C/c3ccccc3)n2)n[nH]1 [ENMD2076] (first compound 0.0005 µM, partner dose 0.2 µM)	103%	89.6%	78%	60.6%	84%	97.2%	56.2%	73%	51.1%	56.1%	42.9%	66.4%	88.8%	65.1%	70.6%	53.4%	47.1%	73.7%	40.4%	69.4%
CC[C@]1(O)C[C@H]2CN(CCc3c([nH]c4ccccc34)[C@@](C(=O)OC)(c3cc4c(cc3OC)N(C=O)[C@H]3[C@@](O)(C(=O)OC)[C@H](OC(C)=O)[C@]5(CC)C=CCN6CC[C@]43[C@@H]65)C2)C1 [vincristine] + O=C(/C=C/c1cccnc1)NCCCCC1CCN(C(=O)c2ccccc2)CC1 [FK866] (first compound 0.0005 µM, partner dose 0.05 µM)	6.17%	30.7%	60.6%	74.3%	65.1%	46.7%	33.4%	101%	75.9%	37.8%	70.4%	15.5%	65.6%	86.3%	92%	65.4%	76%	54.2%	110%	66.5%
CC[C@]1(O)C[C@H]2CN(CCc3c([nH]c4ccccc34)[C@@](C(=O)OC)(c3cc4c(cc3OC)N(C=O)[C@H]3[C@@](O)(C(=O)OC)[C@H](OC(C)=O)[C@]5(CC)C=CCN6CC[C@]43[C@@H]65)C2)C1 [vincristine] + C=CCn1c(=O)c2cnc(Nc3ccc(N4CCN(C)CC4)cc3)nc2n1-c1cccc(C(C)(C)O)n1 [MK1775] (first compound 0.0005 µM, partner dose 0.1 µM)	58.9%	64.3%	50.5%	38.5%	52%	79.7%	52.2%	40.9%	19.4%	55.8%	13.9%	27.1%	42.1%	40.2%	76.8%	65.1%	30.9%	41.9%	32.3%	41%
N#CC[C@H](C1CCCC1)n1cc(-c2ncnc3[nH]ccc23)cn1 [ruxolitinib] + O=C(CCCCCCC(=O)Nc1ccccc1)NO [vorinostat] (first compound 5 µM, partner dose 0.4 µM)	70.8%	104%	82.8%	99%	94.1%	89.6%	86.6%	78.4%	93.7%	80.2%	84.3%	87.2%	91%	75.1%	83.3%	113%	83.5%	83.2%	86.2%	88.1%
Cc1cc(Nc2cc(N3CCN(C)CC3)nc(Sc3ccc(NC(=O)C4CC4)cc3)n2)n[nH]1 [Tozasertib] + CC[C@]1(O)C[C@H]2CN(CCc3c([nH]c4ccccc34)[C@@](C(=O)OC)(c3cc4c(cc3OC)N(C=O)[C@H]3[C@@](O)(C(=O)OC)[C@H](OC(C)=O)[C@]5(CC)C=CCN6CC[C@]43[C@@H]65)C2)C1 [vincristine] (first compound 0.03 µM, partner dose 0.0005 µM)	94.5%	92.1%	75.7%	88.7%	65.6%	94.2%	79.3%	70.9%	40.1%	86.1%	62.8%	94.5%	80.7%	66.4%	95.2%	64.3%	51.1%	62.9%	57.7%	59.2%
Cc1cc(Nc2cc(N3CCN(C)CC3)nc(Sc3ccc(NC(=O)C4CC4)cc3)n2)n[nH]1 [Tozasertib] + O=c1[nH]nc(Sc2ncc([N+](=O)[O-])s2)n1-c1ccc2c(c1)OCCO2 [BI78D3] (first compound 0.03 µM, partner dose 1 µM)	93.9%	86.7%	128%	83.1%	129%	94.4%	68%	84.6%	68.8%	116%	85.4%	112%	94.9%	90.1%	107%	63.3%	61.5%	81.5%	48.1%	90.9%
Cc1cc(Nc2cc(N3CCN(C)CC3)nc(Sc3ccc(NC(=O)C4CC4)cc3)n2)n[nH]1 [Tozasertib] + C=CCn1c(=O)c2cnc(Nc3ccc(N4CCN(C)CC4)cc3)nc2n1-c1cccc(C(C)(C)O)n1 [MK1775] (first compound 0.03 µM, partner dose 0.1 µM)	82.4%	83.3%	88.6%	46.5%	74.5%	87.2%	90.5%	82.9%	48.4%	86.5%	32.3%	78.8%	82.7%	57.9%	77.7%	59.1%	47.4%	70.7%	34.7%	57.8%
CC[C@]1(O)C[C@H]2CN(CCc3c([nH]c4ccccc34)[C@@](C(=O)OC)(c3cc4c(cc3OC)N(C=O)[C@H]3[C@@](O)(C(=O)OC)[C@H](OC(C)=O)[C@]5(CC)C=CCN6CC[C@]43[C@@H]65)C2)C1 [vincristine] + COCC[n+]1c2c(n(Cc3cnccn3)c1C)C(=O)c1ccccc1C2=O [YM155] (first compound 0.0005 µM, partner dose 0.002 µM)	89.1%	54.8%	50.9%	26.2%	37.1%	98.9%	28.5%	44.2%	27.8%	86.7%	56.6%	46.5%	62.4%	30.5%	21.1%	52.2%	59.7%	39.1%	82.8%	35.7%
CC[C@]1(O)C[C@H]2CN(CCc3c([nH]c4ccccc34)[C@@](C(=O)OC)(c3cc4c(cc3OC)N(C=O)[C@H]3[C@@](O)(C(=O)OC)[C@H](OC(C)=O)[C@]5(CC)C=CCN6CC[C@]43[C@@H]65)C2)C1 [vincristine] + CN(C)S(=O)(=O)c1ccc2c(c1)/C(=C/c1cc3c([nH]1)CCCC3)C(=O)N2 [SU6656] (first compound 0.0005 µM, partner dose 2 µM)	44%	61%	44.9%	59.3%	65.6%	69.5%	48.4%	40.4%	21.4%	54.5%	32%	29.1%	49.8%	27.3%	54.6%	40%	28.7%	30.1%	46.7%	30.2%
N#CC[C@H](C1CCCC1)n1cc(-c2ncnc3[nH]ccc23)cn1 [ruxolitinib] + Clc1ccc(Nc2nnc(Cc3ccncc3)c3ccccc23)cc1 [vatalanib] (first compound 5 µM, partner dose 10 µM)	47.4%	69.7%	63.1%	93.7%	81.1%	50.7%	80.7%	48.9%	81.2%	50.7%	59.5%	85.6%	68.6%	37.3%	52.5%	69.1%	84.4%	81.9%	52.2%	69.6%
Cc1cc(Nc2cc(N3CCN(C)CC3)nc(Sc3ccc(NC(=O)C4CC4)cc3)n2)n[nH]1 [Tozasertib] + Cn1c(Nc2ccc(C(F)(F)F)cc2)nc2cc(Oc3ccnc(-c4ncc(C(F)(F)F)[nH]4)c3)ccc21 [CHIR265] (first compound 0.03 µM, partner dose 0.4 µM)	16.8%	43.3%	82.2%	21.8%	80.1%	71.7%	38.8%	65.8%	43%	69.5%	36.9%	31.8%	60.4%	33.2%	64.5%	50.2%	44.2%	56%	45.8%	51.9%
N#CC[C@H](C1CCCC1)n1cc(-c2ncnc3[nH]ccc23)cn1 [ruxolitinib] + CC(=O)O[C@@]12CO[C@@H]1C[C@H](O)[C@@]1(C)C(=O)[C@H](O)C3=C(C)[C@@H](OC(=O)[C@H](O)[C@@H](NC(=O)OC(C)(C)C)c4ccccc4)C[C@@](O)([C@@H](OC(=O)c4ccccc4)[C@H]21)C3(C)C [Docetaxel] (first compound 5 µM, partner dose 0.0005 µM)	12.7%	35.1%	39.9%	38.7%	48.9%	42.7%	34.2%	20.2%	28.7%	59%	13.2%	19.2%	48.7%	34%	59.6%	58.8%	44.3%	28.3%	38.8%	31.1%
